Experimental data taken from publication PMC8139909.
Substitutions are numbered along the chain they refer to. In names and notes the source's numbering stands. Read-outs that look alike come from different tables or passages of the source. No constants are given. Whether binding was seen depends on the method and setting. For some of these results: In cells and extracts the contact can be indirect. Some entries that bind do so weakly or less than the wild type. Tags and fused reporters may be left off the sequences shown. Each block holds one molecule with its values, some of them ahead of it.

Sequences of proteins named here, by UniProt entry; tags and fusion partners are left off.
UniProt P16649: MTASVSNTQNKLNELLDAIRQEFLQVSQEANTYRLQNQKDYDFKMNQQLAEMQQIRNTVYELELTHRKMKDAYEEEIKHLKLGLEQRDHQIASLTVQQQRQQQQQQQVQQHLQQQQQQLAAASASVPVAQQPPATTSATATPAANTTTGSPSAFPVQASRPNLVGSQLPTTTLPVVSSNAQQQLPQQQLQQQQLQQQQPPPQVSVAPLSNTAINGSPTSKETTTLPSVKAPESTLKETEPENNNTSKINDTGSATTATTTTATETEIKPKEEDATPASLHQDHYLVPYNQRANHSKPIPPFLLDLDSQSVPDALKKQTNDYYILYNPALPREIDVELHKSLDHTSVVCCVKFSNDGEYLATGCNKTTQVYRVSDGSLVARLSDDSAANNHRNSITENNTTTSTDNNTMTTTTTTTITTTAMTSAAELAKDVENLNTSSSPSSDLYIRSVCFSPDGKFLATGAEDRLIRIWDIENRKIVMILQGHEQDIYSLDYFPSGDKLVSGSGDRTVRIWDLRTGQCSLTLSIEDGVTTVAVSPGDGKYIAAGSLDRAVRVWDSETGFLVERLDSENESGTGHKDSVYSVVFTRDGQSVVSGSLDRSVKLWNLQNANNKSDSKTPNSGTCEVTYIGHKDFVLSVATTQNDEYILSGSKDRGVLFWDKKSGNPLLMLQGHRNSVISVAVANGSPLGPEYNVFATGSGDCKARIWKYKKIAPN

Experiments:
[1] = target: T1, GST-Fkh1_(51–125)L74A (S. cerevisiae) (UniProt P40466); assay: pull-down; GST fusion from E. coli immobilized on GSH sepharose, incubated with pre-cleared total protein extract from S. cerevisiae containing the HA fusion; eluted with 10 mM free GSH; anti-HA blot; only the target purified
T1 sequence: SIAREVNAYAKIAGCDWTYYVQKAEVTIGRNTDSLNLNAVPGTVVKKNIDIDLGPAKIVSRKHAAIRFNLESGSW

[2] = target: T2, GST-Fkh1 (full-length fusion protein, 1–484) (S. cerevisiae) (UniProt P40466); assay: as above
T2 sequence: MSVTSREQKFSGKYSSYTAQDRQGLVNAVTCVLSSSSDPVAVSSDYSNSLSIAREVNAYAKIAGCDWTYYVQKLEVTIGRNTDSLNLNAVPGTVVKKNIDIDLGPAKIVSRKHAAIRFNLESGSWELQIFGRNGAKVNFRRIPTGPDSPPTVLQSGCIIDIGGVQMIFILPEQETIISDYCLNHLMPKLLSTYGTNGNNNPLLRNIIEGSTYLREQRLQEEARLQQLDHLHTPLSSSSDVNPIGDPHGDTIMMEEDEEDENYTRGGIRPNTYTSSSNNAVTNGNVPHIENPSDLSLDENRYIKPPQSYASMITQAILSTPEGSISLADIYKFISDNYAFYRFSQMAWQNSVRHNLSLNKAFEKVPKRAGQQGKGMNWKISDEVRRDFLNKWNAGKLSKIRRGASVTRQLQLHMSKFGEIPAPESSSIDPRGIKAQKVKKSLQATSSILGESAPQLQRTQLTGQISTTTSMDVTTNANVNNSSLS

[3] = target: T3, GST-Fkh1_(51–125)I78A (S. cerevisiae) (UniProt P40466); assay: as above
T3 sequence: T1 sequence with A24L, I28A

[4] = target: T2, GST-Fkh1 (full-length fusion protein, 1–484) (S. cerevisiae); assay: pull-down; GST fusion from E. coli immobilized on GSH sepharose, incubated with pre-cleared bacterial (E. coli) total protein extract containing the HA fusion; eluted with 10 mM free GSH; anti-HA blot; only the target purified
[5] = target: T4, GST-Fkh1_(51–125) (S. cerevisiae) (UniProt P40466); assay: pull-down; GST fusion from E. coli immobilized on GSH sepharose, incubated with pre-cleared total protein extract from S. cerevisiae containing the HA fusion; eluted with 10 mM free GSH; anti-HA blot; only the target purified
T4 sequence: T1 sequence with A24L

[6] = target: T5, GST-Fkh1 (aa 126–240) (S. cerevisiae) (UniProt P40466); assay: as above
T5 sequence: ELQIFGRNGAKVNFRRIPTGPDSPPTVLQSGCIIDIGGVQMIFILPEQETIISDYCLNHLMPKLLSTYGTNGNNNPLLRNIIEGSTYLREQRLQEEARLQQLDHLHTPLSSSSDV

[7] = target: T6, GST-Fkh1 (aa 81–160) (S. cerevisiae) (UniProt P40466); assay: as above
T6 sequence: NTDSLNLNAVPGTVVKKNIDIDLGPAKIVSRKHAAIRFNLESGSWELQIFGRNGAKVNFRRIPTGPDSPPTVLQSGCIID

[8] = target: T7, GST-Fkh1 (aa 1–125) (S. cerevisiae) (UniProt P40466); assay: as above
T7 sequence: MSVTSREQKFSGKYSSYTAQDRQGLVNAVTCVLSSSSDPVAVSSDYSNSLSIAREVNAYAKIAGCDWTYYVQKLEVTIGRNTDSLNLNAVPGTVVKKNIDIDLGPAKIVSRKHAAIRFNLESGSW

[9] = target: T8, BD-Sin3_(1–300) (S. cerevisiae) (UniProt P22579); assay: two-hybrid; strain PJ69-4A; Gal4 BD-Sin3 (pGBD-C1) and Gal4 AD-Fkh1 (pGAD-C1) fusions; growth on medium lacking adenine (GAL2-ADE2 reporter) after 48 h
T8 sequence: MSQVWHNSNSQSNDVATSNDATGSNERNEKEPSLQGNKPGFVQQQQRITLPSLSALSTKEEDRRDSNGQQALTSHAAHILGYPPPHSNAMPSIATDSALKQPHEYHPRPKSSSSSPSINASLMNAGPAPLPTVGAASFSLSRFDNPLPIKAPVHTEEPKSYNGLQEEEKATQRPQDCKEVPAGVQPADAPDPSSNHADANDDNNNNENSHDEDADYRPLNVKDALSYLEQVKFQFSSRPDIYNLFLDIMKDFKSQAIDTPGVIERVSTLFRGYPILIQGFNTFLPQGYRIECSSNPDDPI

[10] = target: BD-Sin3_(301–888) (S. cerevisiae) (UniProt P22579); assay: as above
[11] = target: T2, GST-Fkh1 (full-length fusion protein, 1–484) (S. cerevisiae); assay: pull-down; GST fusion from E. coli immobilized on GSH sepharose, incubated with pre-cleared total protein extract from S. cerevisiae containing the HA fusion; eluted with 10 mM free GSH; anti-HA blot; only the target purified; remark: listed apart in the source
[12] = target: T5, GST-Fkh1 (aa 126–240) (S. cerevisiae); assay: as above; remark: listed apart in the source
[13] = target: T7, GST-Fkh1 (aa 1–125) (S. cerevisiae); assay: as above; remark: listed apart in the source

Molecule: HA3-Sin3 (full-length), expressed in S. cerevisiae (from UniProt P22579 1-1536)
binding [1]: no binding
binding [2]: binds
binding [3]: no binding

Molecule: HA3-Sin3 (full-length), expressed in E. coli (from UniProt P22579 1-1536)
binding [4]: binds

Molecule: HA3-Tup1 (full-length) (from UniProt P16649 1-713)
binding [4]: binds

B1: AD-Fkh1_(1–125) (domain or fragment, UniProt P40466 1-125)
chain: T7 sequence
binding [9]: binds
binding [10]: binds

B2: AD-Fkh1_(126–240) (domain or fragment, UniProt P40466 126-240)
chain: T5 sequence
binding [9]: binds
binding [10]: binds

B5: HA3-Cyc8 (aa 1–398, TPR-containing domain) (domain or fragment, UniProt P14922 1-398)
chain: MNPGGEQTIMEQPAQQQQQQQQQQQQQQQQAAVPQQPLDPLTQSTAETWLSIASLAETLGDGDRAAMAYDATLQFNPSSAKALTSLAHLYRSRDMFQRAAELYERALLVNPELSDVWATLGHCYLMLDDLQRAYNAYQQALYHLSNPNVPKLWHGIGILYDRYGSLDYAEEAFAKVLELDPHFEKANEIYFRLGIIYKHQGKWSQALECFRYILPQPPAPLQEWDIWFQLGSVLESMGEWQGAKEAYEHVLAQNQHHAKVLQQLGCLYGMSNVQFYDPQKALDYLLKSLEADPSDATTWYHLGRVHMIRTDYTAAYDAFQQAVNRDSRNPIFWCSIGVLYYQISQYRDALDAYTRAIRLNPYISEVWYDLGTLYETCNNQLSDALDAYKQAARLDVNN
binding [4]: no binding

B8: AD-Fkh1_(51–125) (domain or fragment, UniProt P40466 51-125)
chain: T1 sequence with A24L
binding [10]: binds

B9: AD-Fkh1_(51–125 L74A) (domain or fragment, UniProt P40466 51-125)
chain: T1 sequence
binding [10]: no binding

B10: AD-Fkh1_(51–125 I78A) (domain or fragment, UniProt P40466 51-125)
chain: T1 sequence with A24L, I28A
binding [10]: no binding

B11: AD-Fkh1_(81–160) (domain or fragment, UniProt P40466 81-160)
chain: T6 sequence
binding [10]: binds

Next, values leading:

binding [5]: binds
binding [6]: binds
binding [7]: binds
binding [2]: binds
binding [8]: binds
Molecule: HA-tagged Sin3 (aa 301–600), comprising PAH2 (from UniProt P22579 301-600) (domain or fragment)

binding [11]: no binding
B3: HA-tagged Sin3 (aa 601–950) (domain or fragment, UniProt P22579 601-950)
chain: TSLTEQYAPSSIQHQQQHPQSISPIANTQYGDIPVRPEIDLDPSIVPVVPEPTEPIENNISLNEEVTFFEKAKRYIGNKHLYTEFLKILNLYSQDILDLDDLVEKVDFYLGSNKELFTWFKNFVGYQEKTKCIENIVHEKHRLDLDLCEAFGPSYKRLPKSDTFMPCSGRDDMCWEVLNDEWVGHPVWASEDSGFIAHRKNQYEETLFKIEEERHEYDFYIESNLRTIQCLETIVNKIENMTENEKANFKLPPGLGHTSMTIYKKVIRKVYDKERGFEIIDALHEHPAVTAPVVLKRLKQKDEEWRRAQREWNKVWRELEQKVFFKSLDHLGLTFKQADKKLLTTKQLIS

binding [11]: no binding
B4: HA-tagged Sin3 (aa 1101–1536) (domain or fragment, UniProt P22579 1101-1536)
chain: IEEEELIDEEAKNPWLTGNLVEEANSQGIIQNRSIFNLFANTNIYIFFRHWTTIYERLLEIKQMNERVTKEINTRSTVTFAKDLDLLSSQLSEMGLDFVGEDAYKQVLRLSRRLINGDLEHQWFEESLRQAYNNKAFKLYTIDKVTQSLVKHAHTLMTDAKTAEIMALFVKDRNASTTSAKDQIIYRLQVRSHMSNTENMFRIEFDKRTLHVSIQYIALDDLTLKEPKADEDKWKYYVTSYALPHPTEGIPHEKLKIPFLERLIEFGQDIDGTEVDEEFSPEGISVSTLKIKIQPITYQLHIENGSYDVFTRKATNKYPTIANDNTQKGMVSQKKELISKFLDCAVGLRNNLDEAQKLSMQKKWENLKDSIAKTSAGNQGIESETEKGKITKQEQSDNLDSSTASVLPASITTVPQDDNIETTGNTESSDKGAKIQ

binding [12]: binds
binding [11]: binds
binding [13]: binds
B6: HA-tagged Sin3 (aa 1–300), comprising PAH1 (domain or fragment, UniProt P22579 1-300)
chain: T8 sequence

binding [11]: no binding
B7: HA-tagged Sin3 (aa 801–1100) (domain or fragment, UniProt P22579 801-1100)
chain: NQYEETLFKIEEERHEYDFYIESNLRTIQCLETIVNKIENMTENEKANFKLPPGLGHTSMTIYKKVIRKVYDKERGFEIIDALHEHPAVTAPVVLKRLKQKDEEWRRAQREWNKVWRELEQKVFFKSLDHLGLTFKQADKKLLTTKQLISEISSIKVDQTNKKIHWLTPKPKSQLDFDFPDKNIFYDILCLADTFITHTTAYSNPDKERLKDLLKYFISLFFSISFEKIEESLYSHKQNVSESSGSDDGSSIASRKRPYQQEMSLLDILHRSRYQKLKRSNDEDGKVPQLSEPPEEEPNT
